Assay results as given in PubChem BioAssay AID1468 (National Center for Advancing Translational Sciences (NCATS), 2008).
The whole screen tested about 280,000 compounds, of which about 1,100 (0.39%) were called active. This list was built around the results that the source calls inconclusive (neither active nor inactive); the mix of calls is not that of the screen. Calls come from the whole dose curve; as a rule, active = well fitted inhibition curve with a large enough effect; inconclusive = small, poorly fitted or top-dose-only effect, or effect the other way; inactive = flat fitted curve, though single readings scatter. No potency is given beside an inconclusive call; the fits are too rough.

Each molecule was assayed against Microtubule-associated protein tau (Homo sapiens) (UniProt P10636) (assay: qHTS for Inhibitors of Tau Fibril Formation, Fluorescence Polarization). Details: K18 P301L tau heparin fibrillization, Alexa594 FP, 6 h; series mostly up to 57.7 µM; activity, negative = inhibition: at the top concentration.
Procedure, shortened: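 FP of Alexa 594-tau after heparin (20 uM) induction. Substrate: human K18 P301L, 15 uM unlabeled, 0.24 uM labeled. Buffer 100 mM sodium acetate pH 7. 6 hr, 37 C.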
% is set by controls: 0 for no effect and ±100 for the full control effect; potency is the fitted concentration of half-maximal effect; tags give direction and shape of the fitted curve.
Note: nearly all actives have a fitted effect of over 55% in size.

Sequence of UniProt P10636 (P10636 whole entry, looked up): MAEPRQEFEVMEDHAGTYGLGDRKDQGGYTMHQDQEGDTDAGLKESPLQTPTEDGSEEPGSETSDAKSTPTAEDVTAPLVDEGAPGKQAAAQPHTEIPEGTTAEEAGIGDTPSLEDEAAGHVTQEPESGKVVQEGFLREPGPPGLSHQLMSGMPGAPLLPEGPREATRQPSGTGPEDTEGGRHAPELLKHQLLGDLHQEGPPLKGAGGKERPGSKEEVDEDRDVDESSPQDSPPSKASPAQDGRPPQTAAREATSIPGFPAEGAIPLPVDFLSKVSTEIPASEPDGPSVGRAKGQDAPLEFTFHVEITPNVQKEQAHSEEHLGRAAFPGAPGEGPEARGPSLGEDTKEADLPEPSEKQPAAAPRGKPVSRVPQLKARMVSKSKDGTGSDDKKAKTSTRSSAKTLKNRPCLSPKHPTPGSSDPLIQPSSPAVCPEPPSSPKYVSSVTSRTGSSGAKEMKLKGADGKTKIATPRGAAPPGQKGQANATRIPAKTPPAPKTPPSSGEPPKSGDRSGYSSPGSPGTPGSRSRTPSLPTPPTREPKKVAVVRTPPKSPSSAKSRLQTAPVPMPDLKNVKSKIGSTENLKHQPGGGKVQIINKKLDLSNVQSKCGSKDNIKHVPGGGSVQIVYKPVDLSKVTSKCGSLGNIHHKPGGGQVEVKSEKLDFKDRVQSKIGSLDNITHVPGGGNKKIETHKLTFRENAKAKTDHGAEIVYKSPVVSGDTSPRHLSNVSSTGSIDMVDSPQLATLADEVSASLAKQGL

Structure (SMILES)	activity, negative = inhibition	Potency
NS(=O)(=O)c1ccc(NC(=O)/C=C/c2ccco2)cc1	inactive: -14.6%	
O=C(Nc1cccc(S(=O)(=O)NCc2ccco2)c1)c1cc(-c2ccc(F)cc2)nc2ccccc12		inconclusive [inhibitor, partial curve]
CC(Cc1ccc(O)c(O)c1)(NN)C(=O)O (stereo not given)		inconclusive [inhibitor, partial curve]
CCOc1cc(N2CCOCC2)c(OCC)cc1NC(C)C(=O)N1CCN(CC)CC1 (stereo not given)		inconclusive [inhibitor, partial curve]
Cc1ccc(NC(=S)Nc2ccc(S(=O)(=O)Nc3ncccn3)cc2)cc1Cl		inconclusive [inhibitor, single point]
COc1ccc(OC)c(Cc2nnc(CCC(=O)N3CCCCCC3)o2)c1		inconclusive [inhibitor, full curve, poor fit]
O=C(NC(Nc1ncc(S(=O)(=O)c2ccc([N+](=O)[O-])cc2)s1)(C(F)(F)F)C(F)(F)F)c1ccc(Cl)cc1		inconclusive [activator, partial curve, poor fit]
O=C(/C=C/c1ccccc1Cl)Nc1cccc(S(=O)(=O)NC2=NCCCCC2)c1		inconclusive [inhibitor, partial curve]
C[N+](C)(C)CCOC(=O)CCC(=O)OCC[N+](C)(C)C		inconclusive [inhibitor, single point]
S=C(Nc1ccc2nccnc2c1)N1CCOCC1		inconclusive [inhibitor, partial curve]
COc1cc(CNc2ccc3[nH]c(=O)[nH]c3c2)cc(Cl)c1OCC(=O)NC(C)(C)C		inconclusive [inhibitor, single point]
Oc1ccc(/C=N/NC(=S)NC2CC3CCC2C3)cc1 (stereo not given)		inconclusive [activator, full curve, poor fit]
O=C(c1cc(-c2ccccc2O)on1)N1CCc2ccccc2C1		inconclusive [inhibitor, single point]
Cc1ccc(NC(=O)c2ccccc2[N+](=O)[O-])nc1	inactive: -4.7%	
CC(C)(C)NC(=O)/C(=C/c1ccco1)c1ccccc1	inactive: -5.5%	
CCOC(=O)c1cnc2c(cnn2C)c1NCCC#N		inconclusive [inhibitor, single point]
CCCC(=O)OCC(=O)Nc1ccc(N=Nc2ccccc2)cc1		inconclusive [inhibitor, single point]
Cc1ccsc1/C=N/N1CCN(c2ccccn2)CC1		inconclusive [activator, single point]
CCN1CCN(Cc2c(O)ccc3c2O/C(=C\c2ccccc2)C3=O)CC1	inactive: 8.11%	
C/C(N)=C(/C#N)C(=O)CSc1nc2ccccc2c(=O)n1Cc1ccc(C)cc1		inconclusive [inhibitor, partial curve]
CCc1nn(CC(=O)N2CCC(C)CC2)c(=O)c2cc3occc3n12	inactive: 6.29%	
CCCN(c1ccc(C(C)C)cc1)S(=O)(=O)c1ccc2c(c1)n(C)c(=O)c(=O)n2C	inactive: -2.15%	

Structure (SMILES)	activity, negative = inhibition	Potency
Cc1csc2nc(COC(=O)c3cccc(NC(=O)c4cccc(Cl)c4)c3)cc(=O)n12		inconclusive [inhibitor, partial curve]
O=S(=O)(Nc1cccc(C(F)(F)F)c1)c1ccc(NS(=O)(=O)c2ccc3c(c2)OCCO3)cc1		inconclusive [inhibitor, partial curve]
CCCc1nnc(NC(=O)CN2C(=O)c3ccccc3C2=O)s1		inconclusive [inhibitor, full curve, poor fit]
CC(=O)c1cccc(NC(=O)Nc2c(C)n(C)n(-c3ccccc3)c2=O)c1	inactive: -0.22%	
Cc1cccc(NC(=O)CSc2ncc(-c3ccc(Br)cc3)[nH]2)c1		inconclusive [inhibitor, single point]
O=C(CSc1ccc(-c2cccs2)nn1)Nc1ccccc1		inconclusive [inhibitor, partial curve]
O=C(CSc1nccc(=O)[nH]1)c1cc2ccccc2o1		inconclusive [inhibitor, single point]
COc1ccc(CCNC(=O)Cn2nnc(-c3ccc(Cl)cc3)n2)cc1OC	inactive: -7.18%	
CC(C)Oc1ccc(CN2CCc3nc(Nc4ccc5c(c4)OCCO5)ncc3C2)cc1		inconclusive [activator, partial curve, poor fit]
Cc1ccc(OCc2ccc(C(=O)Nc3nc4ccccc4n3Cc3ccccc3)o2)c([N+](=O)[O-])c1		inconclusive [inhibitor, partial curve]
Oc1ccc(-c2[nH]ncc2-c2ccc(Cl)cc2)c(O)c1		inconclusive [activator, partial curve, poor fit]
CCN(CC)S(=O)(=O)c1cccc(NC(=O)c2ccc(Sc3nncn3C)c([N+](=O)[O-])c2)c1		inconclusive [activator, partial curve]
COC(=O)c1ccc(NC(=O)CN2CCCN(Cc3ccc(Cl)cc3)S2(=O)=O)cc1	inactive: -15.4%	
O=C(Nc1ccc2c(c1)OCCO2)Nc1ccc2c(c1)OCO2		inconclusive [activator, single point]
CNC(=O)CSc1nnc(-c2cccnc2)n1CCc1ccccc1	inactive: -1.27%	
O=C(CCn1ccc2ccccc21)NC1CCCc2ccccc21 (stereo not given)		inconclusive [inhibitor, single point]
O=C(O)CCCN1C(=O)/C(=C/c2cn(-c3ccccc3)nc2-c2cccs2)SC1=S		inconclusive [activator, single point]
Fc1ccc(-c2noc3ncnc(Nc4ccc(F)cc4F)c23)cc1	inactive: -10.3%	
Cc1cccc(NC(=O)Cn2c(=O)n(Cc3ccccc3)c(=O)c3sc4ccccc4c32)c1		inconclusive [inhibitor, partial curve]
COc1cccc(Nc2nc3ccccc3c(=O)[nH]2)c1		inconclusive [activator, full curve, poor fit]
O=C(Nc1ccncc1)Nc1ccc(F)c(Cl)c1		inconclusive [inhibitor, partial curve]
COc1ccc(Nc2ncnc3c2cnn3Cc2ccccc2)cc1OC		inconclusive [activator, partial curve]

Structure (SMILES)	activity, negative = inhibition	Potency
O=C(CSc1ncccn1)Nc1cc(Cl)ccc1[N+](=O)[O-]		inconclusive [inhibitor, single point]
Cc1ccc2nc(SCC(=O)Nc3ccc(C)c([N+](=O)[O-])c3)[nH]c2c1		inconclusive [inhibitor, single point]
CCOC(=O)c1sc2ncn(CC(=O)Nc3cc(Cl)ccc3C)c(=O)c2c1C		inconclusive [inhibitor, partial curve]
O=C(CSc1ccc2nnc(-c3cccnc3)n2n1)NCc1ccco1	inactive: -6.27%	
c1ccc2oc(-c3ccc(Nc4nc(N5CCCC5)nc(N5CCOCC5)n4)cc3)nc2c1		inconclusive [inhibitor, single point]
COc1ccccc1Nc1nc(-c2ccccc2)nc2ccccc12		inconclusive [inhibitor, partial curve]
COc1ccc(-n2c(SCC(=O)Nc3cc(C)on3)nc3c([nH]c4ccccc43)c2=O)cc1		inconclusive [inhibitor, partial curve]
CC(=O)Nc1ccc(S(=O)(=O)Oc2ccc(N3C(=O)C4CCCCC4C3=O)cc2)cc1 (stereo not given)		inconclusive [inhibitor, single point]
O=C(COc1ccc(Cl)cc1)Nc1nc(-c2cccs2)cs1		inconclusive [inhibitor, single point]
COc1cc(C2C3C(=O)N(c4ccc(F)cc4)C(=O)C3ON2c2ccccc2)ccc1O (stereo not given)		inconclusive [inhibitor, single point]
COC(=O)c1c(C)n(-c2ccccc2)c2ccc(O)cc12	inactive: -9.69%	
C/C=C/C=C\C(=O)Nc1cccc(C2=NOC3(C2)C[C@@H](C(N)=O)N(C(=O)/C(C)=C/C)C3)c1 (stereo not given in full)	inactive: 4.12%	
Cc1ccc(-c2nc(NCc3ccco3)c3ccccc3n2)cc1		inconclusive [inhibitor, partial curve]
Cc1nc(NC(=O)c2csc3ccccc23)sc1C		inconclusive [inhibitor, single point]
Cc1cccc[n+]1C1C(c2ccccc2)C(C#N)=C(C(=C=[N-])C#N)NC1(O)C1CC1 (stereo not given)		inconclusive [inhibitor, partial curve]
CCc1ccccc1NC(=O)Cn1nnc2sc3c(c2c1=O)CCC(C(C)(C)C)C3 (stereo not given)	inactive: -8.66%	
C=CCn1c(=O)c2c(nc(-c3ccc(S(=O)(=O)O)cc3)n2C)n(C)c1=O		inconclusive [inhibitor, single point]
CNC(=O)c1[nH]cnc1C(=O)N[C@@H](Cc1ccccc1)C(=O)OCc1ccccc1		inconclusive [inhibitor, single point]
Cc1ccc(C)c(NC(=O)Cc2coc3cc(C)cc(C)c23)c1		inconclusive [inhibitor, single point]
CCOc1ccc2nc(N3CCCC(C(=O)Nc4ccc(OC)cc4)C3)sc2c1 (stereo not given)		inconclusive [activator, partial curve]
CCc1cccc2c(C(=O)COC(=O)c3cccc(S(=O)(=O)N(C)C4CCCCC4)c3)c[nH]c12		inconclusive [inhibitor, partial curve]
